Results published in publication PMC4336329 (PLoS ONE, 2015).
The whole screen tested about 310,000 compounds, of which about 2,200 (0.71%) showed an effect of 50% or more. Effects have a minus sign here. The list shows a part of the results.

Biological target: human ether-à-go-go-related gene (hERG) potassium channel (human, UniProt Q12809)
Experiment: primary screen, population patch clamp on CHO cells stably expressing hERG

Sequence of human ether-à-go-go-related gene (hERG) potassium channel (Q12809 whole entry, looked up): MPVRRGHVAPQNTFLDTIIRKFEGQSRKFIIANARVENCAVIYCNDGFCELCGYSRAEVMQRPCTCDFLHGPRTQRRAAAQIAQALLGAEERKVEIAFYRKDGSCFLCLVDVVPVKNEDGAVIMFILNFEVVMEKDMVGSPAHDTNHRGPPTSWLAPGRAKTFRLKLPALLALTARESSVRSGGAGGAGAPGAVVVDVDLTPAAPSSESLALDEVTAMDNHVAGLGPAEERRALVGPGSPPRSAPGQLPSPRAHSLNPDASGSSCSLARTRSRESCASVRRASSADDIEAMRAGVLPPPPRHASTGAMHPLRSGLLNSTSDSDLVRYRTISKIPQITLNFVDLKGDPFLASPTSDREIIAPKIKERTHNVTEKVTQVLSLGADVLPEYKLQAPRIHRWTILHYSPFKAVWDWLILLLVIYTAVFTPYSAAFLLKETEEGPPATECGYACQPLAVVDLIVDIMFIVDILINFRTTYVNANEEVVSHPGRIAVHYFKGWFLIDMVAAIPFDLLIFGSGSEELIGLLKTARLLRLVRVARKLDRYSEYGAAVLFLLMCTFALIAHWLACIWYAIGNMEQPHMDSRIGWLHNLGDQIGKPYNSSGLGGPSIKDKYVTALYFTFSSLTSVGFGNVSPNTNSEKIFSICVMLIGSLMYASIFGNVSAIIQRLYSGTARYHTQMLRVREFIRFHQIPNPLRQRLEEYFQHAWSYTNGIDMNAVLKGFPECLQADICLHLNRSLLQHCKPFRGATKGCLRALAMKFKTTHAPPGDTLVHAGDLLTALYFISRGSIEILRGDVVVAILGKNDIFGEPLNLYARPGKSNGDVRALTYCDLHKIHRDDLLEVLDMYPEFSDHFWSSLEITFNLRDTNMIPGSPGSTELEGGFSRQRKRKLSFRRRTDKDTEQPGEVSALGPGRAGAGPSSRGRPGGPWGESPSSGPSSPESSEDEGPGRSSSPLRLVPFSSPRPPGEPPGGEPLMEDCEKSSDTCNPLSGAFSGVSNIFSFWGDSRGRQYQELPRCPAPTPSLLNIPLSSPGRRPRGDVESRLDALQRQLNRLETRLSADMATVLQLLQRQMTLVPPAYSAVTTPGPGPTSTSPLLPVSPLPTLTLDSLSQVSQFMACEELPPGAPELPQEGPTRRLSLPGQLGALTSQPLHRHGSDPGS

| SMILES | hERG current change (%, negative = inhibition) at 1uM |
| --- | --- |
| C#CCCOC(=O)N1C2=NC(C(=O)OC)=C(C(=O)OC)[C@@H]3N(C)c4ccccc4[C@]23C[C@H]1CO | 10.9% |
| CCCCCCCCCCCCS[C@H]1CS(=O)(=O)C[C@@H]1O | 5.76% |
| CC(C)(C)c1ccccc1OCCOCCN1CCCCCC1.O=C(O)C(=O)O | -3.93% |
| C=CCOC(=O)C1=C[C@@H](c2ccccc2)C[C@@H](OCc2ccc(CO)cc2)O1 | 8.92% |
| Nc1cc(C(=O)OCC(=O)Nc2ccc(N3CCOCC3)cc2)ccc1Cl | 5.77% |
| Cc1ccc(CNC(=O)COC(=O)c2cncc(Br)c2)cc1 | 14.1% |
| COc1ccc(/C=N/NC(=O)CCn2nc(C)cc2C)cc1 | 7.76% |
| O=C(O)CSc1nc2c(c(=O)[nH]1)CCCC2 | 16% |
| CCn1c(C)c(C)c2cc(C(=O)N3CCc4ccccc4C3)ccc21 | 7.51% |
| COCCCNc1oc(-c2cccs2)nc1S(=O)(=O)c1ccc(C)cc1 | 2.02% |
| O=C(Nc1ccc([N+](=O)[O-])cc1)c1cc(-c2ccccn2)nc2c(Cl)cccc12 | 13.5% |
| O=C(COc1ccc2c(c1)oc(=O)c1ccccc12)N[C@@H](Cc1ccccc1)C(=O)O | 12% |
| O=C1CCCCC1Sc1ccc(Cl)cc1[N+](=O)[O-] (stereo not shown) | 7.69% |
| COc1ccc(/C(C)=N/OC/C(O)=C(\C#N)c2nc3ccccc3[nH]2)cc1 | 16.7% |
| CC(C)(C)c1cc(C(=O)NNC(=O)Nc2ccccc2)n(Cc2ccccc2)n1 | 11% |
| COc1cccc(NC(=O)CNC(=O)c2ccc(C)o2)c1 | 12% |
| O=C(CCN1C(=O)/C(=C\C=C\c2ccccc2)SC1=S)Nc1cccc(C(=O)O)c1 | 11.5% |
| O=C(Nc1cccc(F)c1)/C(=C\c1cccnc1)NC(=O)c1ccco1 | -1.43% |
| Cc1ccccc1NC(=O)CN(C)S(=O)(=O)c1cccs1 | 5.52% |
| O=C(C1=C[C@H](c2ccc3c(c2)OCO3)C[C@H](OCCCCO)O1)N1CCN(Cc2ccccc2)CC1 | -20.5% |
| Cc1cc(C)c2nc(Cl)c(C3NC(=O)c4ccccc4N3)cc2c1 (stereo not shown) | 6.67% |
| CC(C)c1cccc(C(C)C)c1NC(=O)CCl | 16.1% |
| O=c1[nH]c(CSc2ncn[nH]2)nc2ccccc12 | 8.32% |
| COc1ccc(NC(=O)c2cc(S(=O)(=O)NCC3COc4ccccc4O3)ccc2F)cc1 (stereo not shown) | 7.86% |
| CSc1ccc(C(=O)C2CCCN(C(=O)c3csc(C(C)=O)c3)C2)cc1 (stereo not shown) | 6.91% |
| O=C(Cn1ncn2cccc2c1=O)N1CCCCC1 | 11.8% |
| O=C(c1cc([N+](=O)[O-])cc([N+](=O)[O-])c1)N1CCCc2ccccc21 | 7.51% |
| O=C(NCc1cccc2ccccc12)Nc1ccccc1 | 4.1% |

| SMILES | hERG current change (%, negative = inhibition) at 1uM |
| --- | --- |
| C=CCc1cc(C)ccc1OCCOCCN1CCN(C)CC1.O=C(O)C(=O)O | 11.3% |
| CC(=O)NC(Cc1ccc(F)c(F)c1)C(=O)NC1CCN(C(=O)c2ccc(C)cc2)CC1 (stereo not shown) | -4.57% |
| COc1cc(-c2nnc(COC(=O)C3c4ccccc4Oc4ccccc43)o2)cc(OC)c1OC | 6.01% |
| Cc1ccc(C(c2c(C)[nH][nH]c2=O)c2c(C)[nH][nH]c2=O)cc1[N+](=O)[O-] | -0.931% |
| O=C(CSc1ncnc2sc3c(c12)CCC3)Nc1ccccc1C(=O)O | 6.04% |
| CCOC(=O)C1CCCN(C(=O)Nc2c(-c3ccccc3)noc2C)C1 (stereo not shown) | 10.7% |
| Cc1ccc2c(c1)c(C)c(C)n2CC(O)Cn1nc(C)cc1C (stereo not shown) | 6.09% |
| Cc1c(Cl)cccc1NC(=O)CC1Sc2ccccc2NC1=O (stereo not shown) | 17.2% |
| CCOC(=O)c1oc2ccccc2c1CN1CCCCC1.Cl | -9.66% |
| Cc1ccc(NC(=O)COc2cccc(-n3cnnn3)c2)cc1[N+](=O)[O-] | 9.32% |
| CC1(C)OC(=O)C(=C2CCCN2)C(=O)O1 | 20.2% |
| Cc1ccc(C2CCN(C(=S)Nc3cccc(Cl)c3)C2)cc1 (stereo not shown) | 12.2% |
| CC(C)(C)Cc1nnc(NS(=O)(=O)c2ccc(F)cc2)s1 | 0.152% |
| CCCNC(=O)CCc1c(C)nc2c(c(C)nn2-c2ccccc2)c1C | 9.19% |
| OCCC1CN(Cc2ccc3c(c2)CCO3)CCN1Cc1ccc(F)cc1 (stereo not shown) | -31.8% |
| CC1(C)CC(=O)C=C(N=CC2=C(O)CC(C)(C)CC2=O)C1 | 7.45% |
| CC(=O)Nc1cc(C(=O)c2ccccc2)ccc1N1CCOCC1 | -18.4% |
| Cc1ccnc(NS(=O)(=O)c2ccc(NS(=O)(=O)c3ccc(Br)cc3)cc2)n1 | 16.1% |
| O=C(CSc1nc(-c2ccccc2)c(-c2ccccc2)[nH]1)Nc1nccs1 | -2.45% |
| CCCn1c(SCC(=O)c2c(N)n(C3CC3)c(=O)[nH]c2=O)nc2cc(S(N)(=O)=O)ccc21 | 2.68% |
| CC1CN(CCc2ccccc2)CC(C)O1 (stereo not shown) | 15.6% |
| COc1ccc(S(=O)(=O)N2CCC(C(=O)N[C@H](C(=O)NC3CCCC3)C(C)C)CC2)cc1 | 10.1% |
| COC(=O)c1oc2ccccc2c1NC(=O)/C=C/C(=O)O | 6.91% |
| CCCC(=O)Nc1nnc(/C=C/c2ccc(OC)cc2)s1 | 19% |
| O=C(Nc1ccccc1F)C(=O)c1cn(CC(=O)N2CCCCC2)c2ccccc12 | 9.28% |
| NS(=O)(=O)c1ccc(CCNC(=O)CSc2ncnc3ccccc23)cc1 | 19.3% |
| Cc1nn(-c2ccc(F)cc2)c(C)c1NS(=O)(=O)c1ccc(Cl)cc1 | 12.6% |
